Reference: patent US12414969B2, “Methods and compositions for reducing clostridium difficile infection” (priority 2014, dated 2025)

Experiments:
[1] = tested on: C. difficile; assay: Addition of secondary bile acids to culture media, C. difficile growth; settings: bile acid added to culture media
[2] = tested on: C. difficile; settings: literature reference 44; cited from earlier work

## C[C@H](CCC(=O)O)[C@H]1CC[C@H]2[C@@H]3CC[C@@H]4C[C@H](O)CC[C@]4(C)[C@H]3C[C@H](O)[C@]12C [DCA, deoxycholic acid]
[1]
  C. difficile growth inhibition in culture media: inhibit C. difficile in a dose-dependent fashion
[2]
  C. difficile inhibition in vitro (previously shown): previously shown to inhibit C. difficile in vitro
